According to the supplement of paper PMC5499739:
Whole data set: some 16,000 sequences, median “Z-score” near -0.37, cut for the highest 2% near 3.1. The list shows a part of the results.

These sequences were tested on RBM10 RRM1-ZnF-RRM2 (GST-tagged construct) (assay: RNAcompete 7-mer binding Z-score; higher = stronger binding preference).
Procedure, shortened: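 Each heptamer motif was given a one-sided Z-score for enrichment across the probes that contained it. GST-tagged RBM10 constructs (20 pmol) were combined with 1.5 nmol of a designed pool of 241 399 RNAs of up to 41 nt, transcribed from microarray-derived DNA templates. Binding took place in 1 ml Hepes pH 7.8 buffer containing KCl, NaCl, glycerol, DTT, BSA and glutathione Sepharose beads for 30 min at 4°C. After four 2-min washes at 4°C, bound RNA was identified by microarray hybridisation.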

| Sequence | RNAcompete 7-mer binding Z-score |
| --- | --- |
| GCUCGCU | -0.588 |
| GUGAUCU | -0.424 |
| CACGCAC | -0.602 |
| UCCUCUC | -0.661 |
| UAACGAU | -0.388 |
| UAUGGUG | 1.46 |
| UAGUUUC | -0.53 |
| GACGCAC | -0.639 |
| CCAAUCG | -0.326 |
| GUUGUAC | -0.278 |
| GAACGAU | 0.13 |
| UAACCUG | -0.723 |
| GCGUGAU | 0.414 |
| AUAGGAG | 2.27 |
| GUGAAGU | 0.971 |
| AUUUAGA | -0.125 |
| CACAUAC | -0.541 |
| ACACUGA | -0.486 |
| UUAAAUA | -0.373 |
| UUUCGGA | -0.107 |
| AAUUCAG | -0.187 |
| AACCAAU | -0.406 |
| GUCUGAU | -0.624 |
| CCUAACG | -0.712 |

| Sequence | RNAcompete 7-mer binding Z-score |
| --- | --- |
| GCAGGUU | 1.19 |
| CCUGCGG | -0.0343 |
| GCUUAUA | -0.715 |
| AGGACAG | 1.49 |
| CGUAGUA | -0.00877 |
| CGGAGAC | 0.454 |
| UAUUCGC | -0.686 |
| UUCUGAC | -0.821 |
| CUGAACU | -0.795 |
| UAGGGUU | 3.14 |
| CGUGGGG | 3.57 |
| AGGCACA | 0.0932 |
| ACGGCCG | -0.3 |
| AGAAAUA | -0.162 |
| CCGACCA | -0.93 |
| GACCGUU | -0.923 |
| GUACAUU | -0.184 |
| AAGUGUA | 0.935 |
| UGACGAU | 0.0714 |
| UUCAAAA | -0.65 |
| AUGCACG | 0.111 |
| CACCCCG | -0.344 |
| CCAAGAA | -0.26 |
| AUUGCCU | -0.868 |

| Sequence | RNAcompete 7-mer binding Z-score |
| --- | --- |
| GAUGAGG | 3.6 |
| GAUAAAA | -0.0197 |
| UCGCGGU | -0.0816 |
| UAAUUUC | -0.781 |
| UUUAUGA | -0.737 |
| AUAUGUC | -0.431 |
| GACGAAC | -0.0962 |
| CACAUCA | -0.541 |
| GUUAUGU | -0.0743 |
| ACGCUUA | -0.89 |
| AUUCAAC | -0.581 |
| GUUCUGG | -0.158 |
| UCUAUAC | -0.744 |
| CACCGGU | -0.0998 |
| CGGGGCU | 1.43 |
| CUGCUUC | -0.825 |
| AGCCUAG | -0.599 |
| CGCUCAG | -0.555 |
| GUCCUGC | -0.606 |
| AGCAACU | -0.34 |
| CAGUCGU | -0.307 |
| CUGGGAU | 0.964 |
| GAGGAGC | 1.79 |
| GGCAAAG | 1.95 |

| Sequence | RNAcompete 7-mer binding Z-score |
| --- | --- |
| GCAGACA | -0.114 |
| UCAACAU | -0.453 |
| AGGCUAU | -0.322 |
| AUUGGAG | 2.24 |
| UUGUACG | -0.519 |
| GUUCUCC | -0.628 |
| AACUUGU | -0.781 |
| GGUUUUG | 1.21 |
| CGCAAAG | -0.22 |
| CACUUUU | -0.927 |
| GUCACCA | -0.347 |
| UAGGUGU | 1.68 |
| AAGCCCA | -0.741 |
| CAGAUAC | -0.471 |
| CGAACGC | -0.256 |
| GGUCAGG | 1.99 |
| AAUUGCU | -0.38 |
| CGGCUUA | -0.522 |
| CGUCCCA | -0.741 |
| UACUCCU | -0.814 |
| AAGUACU | -0.595 |
| AAACGGU | 1.03 |
| UGGGGAU | 3.05 |
| CGUCGAG | 0.0896 |

| Sequence | RNAcompete 7-mer binding Z-score |
| --- | --- |
| CCACUGA | -0.624 |
| CAUAACG | -0.231 |
| ACAACGU | -0.165 |
| UCCUAAG | -0.657 |
| CGGUAGA | 1.01 |
| CCGCCCA | -0.744 |
| GCUAUUC | -0.595 |
| GGAAUUG | 1.9 |
| AGGAUUC | -0.0816 |
| GACUUUA | -0.77 |
| AGAGGCA | 0.421 |
| CCUCGGG | 0.0932 |
| GCUUCUU | -0.817 |
| CCCUUGG | -0.475 |
| AGACGGG | 1.4 |
| UGUUGGU | 0.472 |
| GCAAGUC | -0.326 |
| AUUGGUA | 1.05 |
| AACUCAC | -0.715 |
| UUGUGGU | 0.468 |
| GAGGUAU | 1.88 |
